Measured values: publication PMC4336329 (PLoS ONE, 2015)
Hit rate of the full screen: of about 310,000 compounds, about 2,200 (0.71%) showed an effect of 50% or more. Effects have a minus sign here. The list shows a part of the results.

Each molecule was assayed against human ether-à-go-go-related gene (hERG) potassium channel (human, UniProt Q12809) (assay: primary screen, population patch clamp on CHO cells stably expressing hERG).
Chain of human ether-à-go-go-related gene (hERG) potassium channel (Q12809 whole entry, looked up): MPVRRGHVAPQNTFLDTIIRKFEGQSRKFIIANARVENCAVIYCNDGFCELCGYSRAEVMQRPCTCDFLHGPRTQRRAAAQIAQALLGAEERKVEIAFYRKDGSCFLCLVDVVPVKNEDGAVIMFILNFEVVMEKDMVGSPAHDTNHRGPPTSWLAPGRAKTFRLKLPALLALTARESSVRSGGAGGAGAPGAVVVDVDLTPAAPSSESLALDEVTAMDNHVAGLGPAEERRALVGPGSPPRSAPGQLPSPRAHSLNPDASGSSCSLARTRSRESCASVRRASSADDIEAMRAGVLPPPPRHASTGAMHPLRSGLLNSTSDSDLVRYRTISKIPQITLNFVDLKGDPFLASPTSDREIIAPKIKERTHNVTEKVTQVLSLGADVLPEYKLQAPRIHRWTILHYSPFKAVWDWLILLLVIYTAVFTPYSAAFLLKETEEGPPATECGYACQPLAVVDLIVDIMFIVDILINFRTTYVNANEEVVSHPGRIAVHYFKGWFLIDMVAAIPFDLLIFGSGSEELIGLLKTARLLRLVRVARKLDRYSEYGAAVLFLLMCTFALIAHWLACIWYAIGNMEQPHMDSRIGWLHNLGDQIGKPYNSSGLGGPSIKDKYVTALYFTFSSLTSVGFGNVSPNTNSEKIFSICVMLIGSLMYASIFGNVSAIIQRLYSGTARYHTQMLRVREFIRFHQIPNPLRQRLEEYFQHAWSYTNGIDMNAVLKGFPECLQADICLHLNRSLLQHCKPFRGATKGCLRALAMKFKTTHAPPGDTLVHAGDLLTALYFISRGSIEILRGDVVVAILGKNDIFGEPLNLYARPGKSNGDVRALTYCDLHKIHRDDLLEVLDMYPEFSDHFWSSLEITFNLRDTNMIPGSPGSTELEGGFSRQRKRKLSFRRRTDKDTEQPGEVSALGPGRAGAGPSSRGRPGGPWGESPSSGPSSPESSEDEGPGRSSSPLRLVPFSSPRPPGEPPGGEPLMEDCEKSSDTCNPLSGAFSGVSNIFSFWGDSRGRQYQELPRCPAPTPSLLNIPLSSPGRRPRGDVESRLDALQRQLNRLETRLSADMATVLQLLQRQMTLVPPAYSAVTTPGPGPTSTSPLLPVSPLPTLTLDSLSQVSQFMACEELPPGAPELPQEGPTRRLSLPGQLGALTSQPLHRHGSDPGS

Row | SMILES | hERG current change (%, negative = inhibition) at 1uM [%]
1 | O=C(O)c1ccc(-c2ccccc2Cl)o1 | 8.92
2 | COc1ccccc1CN(C(=O)c1cnccn1)C(C(=O)NC1CCCCC1)c1cc(OC)c(OC)c(OC)c1 (centres unmarked) | 19.3
3 | CC(C)C(=O)NS(=O)(=O)c1ccc(NS(C)(=O)=O)cc1 | 8
4 | CCN(CC)C(=O)Cn1nc(-c2ccc(Cl)cc2)c2ccccc2c1=O | -5.61
5 | CCC(NC(=O)c1ccccc1NC(=O)c1ccccc1)C(=O)O (centres unmarked) | 7.84
6 | CC(C)C[C@H](NC(=O)Nc1ccccc1F)C(=O)O | -1.14
7 | CCOc1ncccc1C(=O)OCC(=O)N1CCN(S(=O)(=O)c2ccccc2)CC1 | 9.36
8 | CC(C)c1ccc(NC(=O)C2C3C=CC4(CN(CCCN5CCOCC5)C(=O)C24)O3)cc1 (centres unmarked) | 0.84
9 | COc1cccc(CNC(=O)C(=O)NCC2OCCCN2S(=O)(=O)c2cc(C)ccc2C)c1 (centres unmarked) | 7.64
10 | CC(=O)Nc1cc(ON=C(C)C)cc([N+](=O)[O-])c1 | 11.3
11 | Cc1cc(C(=O)OCC(=O)NCCCN2CCCC2=O)c2ccccc2n1 | 12.4
12 | CCOc1ccc(CNc2ccc3c(c2)ncn3C(C)(C)C)cc1 | -17.5
13 | Nc1ccc(CCc2ccc(N)cc2)cc1 | 10.7
14 | CCCCNC(=O)[C@@H]1CSC2c3ccc(OC)c(OC)c3C(=O)N21 (some centres unmarked) | 3.63
15 | Cl.Nc1ccn([C@@H]2O[C@H](CO)[C@@H](O)[C@@H]2O)c(=O)n1 | 13.3
16 | O=C(c1ccccc1)c1cc2ccccc2oc1=O | 10.3
17 | COc1ccc(C2C(C#N)=C(/N=C/N3CCN(C)CC3)OC3=C2C(=O)CC(C)(C)C3)cc1 (centres unmarked) | -6.72
18 | COc1cc(C2C(C#N)=C(N)Oc3cc(C)n(CCN4CCOCC4)c(=O)c32)cc(OC)c1OC (centres unmarked) | 17.5
19 | CC(=O)Nc1ccc(NC2=CC(=O)c3ccccc3C2=O)cc1 | 8.22
20 | COc1ccc(NC(=O)c2cccc3c2C(=O)N(C2CCCCC2)C3)cc1 | 13.5
21 | Cc1ccccc1Nc1nc(N)nc(CSc2ccc(F)cc2)n1 | 2.31
22 | COc1ccc(N2C(=O)CCC(C(=O)N3CCC(C(N)=O)CC3)C2c2ccc(F)cc2)cc1 (centres unmarked) | 7.27

Row | SMILES | hERG current change (%, negative = inhibition) at 1uM [%]
23 | CCc1ccc(Nc2ccc3nonc3c2[N+](=O)[O-])cc1 | 5.17
24 | CC(=O)Nc1cccc(-n2nnc(SCC(N)=O)n2)c1 | 10.3
25 | Cn1c(-c2ccccc2)cnc1SCc1nc2ccccc2c(=O)[nH]1 | -38.7
26 | COc1cccc(C(=O)C2CCCN(CC3=Cc4cc(OC)ccc4OC3)C2)c1 (centres unmarked) | -25.9
27 | CC1(CCCN2C(=O)c3ccccc3C2=O)OCCO1 | 12.6
28 | COc1ccc(N2CCN(S(=O)(=O)c3cccc4cccnc34)CC2)cc1 | -1.29
29 | CCOC(=O)c1sc(NC(=O)COc2ncnc3ccccc23)c(C(=O)OCC)c1C | 10.8
30 | CC(=O)N1CCN=C1SCc1ccccc1 | 17.9
31 | Cc1ccc(C(=O)/C=C/N(C)C)cn1 | 13.6
32 | CC1=C(C)CC(C(=O)Nc2ccc(C(=O)N3CCOCC3)cc2)C(C(=O)O)C1 (centres unmarked) | 20.6
33 | NC(=O)c1cc(S(=O)(=O)NCc2cccc(Br)c2)cs1 | 10.8
34 | CCCn1cc(CN2CCCC(CNC(=O)c3ccc(F)cc3)C2)c(C)n1 (centres unmarked) | 16.2
35 | CCNC(=O)CC1SC(=Nc2ccc(C)cc2)N(CC)C1=O (centres unmarked) | 14.9
36 | COC(C[C@@H]1O[C@@H]1C(=O)[C@H](C)OCc1ccccc1)OC | 15.3
37 | Cc1cc(-c2ccccc2)nc(Cl)c1C#N | 19
38 | CCOc1ccc2nc(N3CCCC(C(=O)NC4CCCC4)C3)sc2c1 (centres unmarked) | 13.7
39 | Cn1nc(C(F)(F)F)c(-c2ccccc2)c1NC(=O)CCC(=O)O | 11.9
40 | Fc1ccc(/C=N/Nc2cc(N3CCOCC3)ncn2)cc1 | 10.6
41 | CCOC(=O)N1CCN(S(=O)(=O)c2cc(Br)cnc2N)CC1 | -4.58
42 | Cc1csc2nc(CNS(=O)(=O)c3cccnc3)cn12 | 13
43 | Cc1nc2c(=O)n(-c3ccc(F)c(Cl)c3)nc(C)c2s1 | 12.6
44 | CC[n+]1c(/C=C/c2ccc(OC(C)=O)c(OC)c2)ccc2ccccc21.[I-] | 13.3
